# Among all 220,000 compounds or so, about 16,000 (7.3%) were called active. Inconclusive means that the source gave no clear call. Such entries were picked first, then a sample of the others. Calls come from the whole dose curve; as a rule, active = well fitted inhibition curve with a large enough effect (not every such curve was filed as active); inconclusive = small, poorly fitted or top-dose-only effect, or another doubt; inactive = no such curve, though single readings can be large or run the other way. No potency is given beside an inconclusive call; the fits are too rough.
# Molecular target: Aldehyde dehydrogenase 1A1 (Homo sapiens) (UniProt P00352)
# Sequence of UniProt P00352 (P00352 whole entry, looked up): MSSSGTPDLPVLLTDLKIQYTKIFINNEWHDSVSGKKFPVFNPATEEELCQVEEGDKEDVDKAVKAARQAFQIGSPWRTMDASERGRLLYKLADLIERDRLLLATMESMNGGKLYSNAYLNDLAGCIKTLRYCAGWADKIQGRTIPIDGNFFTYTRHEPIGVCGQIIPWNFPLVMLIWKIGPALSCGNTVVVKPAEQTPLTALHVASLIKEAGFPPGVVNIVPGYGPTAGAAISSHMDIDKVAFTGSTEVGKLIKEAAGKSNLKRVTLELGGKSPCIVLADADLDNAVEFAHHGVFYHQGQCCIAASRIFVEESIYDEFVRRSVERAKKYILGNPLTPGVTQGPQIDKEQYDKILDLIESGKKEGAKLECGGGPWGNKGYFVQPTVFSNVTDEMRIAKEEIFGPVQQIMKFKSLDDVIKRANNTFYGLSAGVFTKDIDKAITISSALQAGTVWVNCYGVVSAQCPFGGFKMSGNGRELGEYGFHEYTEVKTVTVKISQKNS
# Experiment: qHTS Assay for Inhibitors of Aldehyde Dehydrogenase 1 (ALDH1A1)
# Conditions: Purified ALDH1A1, NADH fluorescence, propionaldehyde substrate; series mostly up to 75.3 µM
# Potency is the fitted concentration of half-maximal effect; tags give direction and shape of the fitted curve.
row,Compound,Potency
1,N#CCCn1c(=O)c(CCc2ccccc2)nc2cnc(Oc3ccccc3)nc21,"inconclusive [inhibitor, partial curve]"
2,COc1ccc(-c2[nH]ncc2/C=N/NC(=O)c2cccc([N+](=O)[O-])c2)cc1OC,"inconclusive [inhibitor, partial curve]"
3,COCCn1c(=O)[nH]c2cc(C(=O)N3CCN(c4ccccc4OC)CC3)ccc2c1=O,inactive
4,c1ccc2c(c1)OCC(c1nnc3n1-c1ccccc1SC3)O2 (centres undefined),"inconclusive [inhibitor, single point]"
5,COc1ccccc1CNC(=O)/C=C/c1ccc(S(=O)(=O)NCc2ccco2)cc1,"inconclusive [inhibitor, single point]"
6,Cc1cccc(N/C(N)=N/c2nc(C)cc(=O)[nH]2)c1,inactive
7,Cc1cccc(C#N)c1NC1=CC(=O)CC(C)(C)C1,active: 7.94 µM
8,COC(=O)c1cc(C(=O)OC)[nH]n1,inactive
9,CCN(CC)CCN(C(=O)CCOc1ccccc1)c1nc2ccc(F)cc2s1,inactive
10,CCc1nc2sc3c(=O)n(N)cnc3c2c2c1COC(C)(C)C2,inactive
11,COc1ccc(-n2c3c(cc(C(=O)NC4CCSC4=O)c2=O)C(=O)CC(C)(C)C3)cc1 (centres undefined),"inconclusive [inhibitor, single point]"
12,Cc1nnc(SC(C)C(=O)N2CCc3ccccc32)s1 (centres undefined),inactive
13,COc1ccc(NC2=C(Cl)C(=O)N(CCc3ccccc3)C2=O)c(OC)c1,"inconclusive [inhibitor, full curve]"
14,COCCNC(=O)c1cn(C)c2ccccc2c1=O,active: 3.55 µM
15,COC(=O)c1c(NC(=O)CSc2nnnn2C)sc(C)c1C,"inconclusive [inhibitor, single point]"
16,Clc1nc2sccn2c1/C=N/n1cnc2ccccc21,"inconclusive [inhibitor, partial curve]"
17,CCOC(=O)c1ccc(NC(=O)c2c(O)c3ccccc3n(C)c2=O)cc1,"inconclusive [inhibitor, single point]"
18,O=C(Nc1ccc2oc(-c3cccnc3)nc2c1)c1ccco1,"inconclusive [inhibitor, partial curve]"
19,CCOc1ccc(NC2c3ccccc3C(=O)N2Cc2ccc3c(c2)OCO3)cc1 (centres undefined),"inconclusive [inhibitor, partial curve]"
20,O=C(c1ccccc1)c1ccc(N2CCNCC2)cc1,active: 28.2 µM
21,COC(=O)c1sccc1NC(=S)Nc1cc(OC)ccc1OC,"inconclusive [inhibitor, single point]"
22,COc1ccc(S(=O)(=O)N2CCCOC2CNC(=O)C(=O)NCc2ccco2)cc1 (centres undefined),"inconclusive [inhibitor, single point]"
23,COc1cc(NC(=O)COC(=O)/C=C/c2ccccc2Cl)cc(OC)c1,"inconclusive [inhibitor, single point]"

row,Compound,Potency
1,COc1ccc(/C(N)=N/OC(=O)Cc2ccc(OC)c(OC)c2)cc1,active: 7.94 µM
2,O=C(CSc1ncnc2c1cnn2-c1ccccc1)Nc1ccc2c(c1)OCO2,"inconclusive [inhibitor, single point]"
3,Fc1ccc(-c2nc(-c3cccs3)[nH]c2-c2ccc(F)cc2)cc1,"inconclusive [inhibitor, partial curve]"
4,CCOC(=O)c1[nH]c(C)c(CN(C(C)=O)c2ccc(OCC)cc2)c1C,"inconclusive [inhibitor, single point]"
5,Clc1ccc(N2N=C(c3cccs3)CC2c2ccco2)cc1 (centres undefined),"inconclusive [inhibitor, partial curve]"
6,COc1ccc(S(=O)(=O)N2CCN(C)CC2)c2ccccc12,"inconclusive [inhibitor, single point]"
7,Cc1cccc(C(C)(C)C)c1OCCn1ccnc1,"inconclusive [inhibitor, single point]"
8,Cc1c(/C(O)=C2/C(=O)C(=O)N(CCN3CCOCC3)C2c2cccs2)cnn1-c1ccccc1 (centres undefined),"inconclusive [inhibitor, single point]"
9,COc1ccc(N(CC(=O)NCc2ccccc2OC)S(=O)(=O)c2ccccc2[N+](=O)[O-])c(OC)c1,"inconclusive [inhibitor, single point]"
10,COc1ccc(NCc2ccc([N+](=O)[O-])s2)cc1,inactive
11,Cc1cc2cc(C(c3nnnn3Cc3ccccc3)N3CCc4ccccc43)c(=O)[nH]c2cc1C (centres undefined),"inconclusive [inhibitor, partial curve]"
12,CCOC(=O)c1c(NC(=O)CSc2nnc(-c3cccnc3)o2)sc2c1CCC2,inactive
13,CNC(=O)/C(C#N)=C\c1cc(C)n(-c2ccc(N3CCOCC3)cc2)c1C,"inconclusive [inhibitor, full curve]"
14,CC(C)Cn1c(N)c(C(=O)NCCN2CCOCC2)c2nc3ccccc3nc21,"inconclusive [inhibitor, partial curve]"
15,N#Cc1c(N)n(C2CCCCC2)c2nc3ccccc3nc12,"inconclusive [inhibitor, single point]"
16,N#C/C(=C\N1CCNC1=S)C(=O)c1ccc2ccccc2c1,"inconclusive [inhibitor, single point]"
17,Cc1ccc(OCCNc2ccc(C(F)(F)F)cc2[N+](=O)[O-])cc1,inactive
18,CC(=O)c1ccc2c3c(ccc(O)c13)CC2,"inconclusive [inhibitor, single point]"
19,CCOC(=O)c1[nH]c2ccc(F)cc2c1NC(=O)C1=COCCO1,"inconclusive [inhibitor, partial curve]"
20,O=C(c1ccc(CNS(=O)(=O)c2ccccc2)cc1)N1CCN(c2ccccn2)CC1,"inconclusive [inhibitor, single point]"
21,C#CCOCCOCCOCCNc1nc(N2CCN(C(=O)C(Cc3cc4ccccc4[nH]3)n3cc(C(N)Cc4ccc(O)cc4)nn3)CC2)nc(N2CCN(C(=O)C(Cc3cc4ccccc4[nH]3)n3cc(C(N)Cc4ccc(O)cc4)nn3)CC2)n1 (centres undefined),"inconclusive [inhibitor, partial curve]"
22,Cc1nc2cnc(N3CCN(C)CC3)nc2n(CCc2ccccc2)c1=O,"inconclusive [inhibitor, partial curve]"
23,COc1ccc(C(=O)c2c(C)c3cc(C)ccc3n2CC(O)CN2CCOCC2)cc1 (centres undefined),active: 11.2 µM

row,Compound,Potency
1,CCn1c(SCC(=O)Nc2cccc(C(C)=O)c2)nnc1C(C)C,inactive
2,CCN(Cc1ccccc1)S(=O)(=O)c1ccc2c(c1)NC(=O)CC(=O)N2,active: 14.1 µM
3,COc1ccc(-c2nnn(Cc3ccccc3F)n2)cc1,"inconclusive [inhibitor, single point]"
4,Cc1ccc2sc(-c3ccc(NC(=O)c4cc(-n5cnnc5)ccc4Cl)cc3)nc2c1,"inconclusive [inhibitor, partial curve]"
5,Cc1no[n+]([O-])c1COc1ccc(/C=C(\C#N)C(N)=O)cc1,active: 10 µM
6,COc1ccc(-c2cc(C(F)(F)F)n3nc(C(=O)N4CCCC4)cc3n2)cc1,"inconclusive [inhibitor, partial curve]"
7,CC(=O)c1cccc(NS(C)(=O)=O)c1,"inconclusive [inhibitor, single point]"
8,CCOC(=O)c1c(C)nc2sc3c(c2c1-c1ccc(OC)cc1)NC(c1ccccc1)NC3=O (centres undefined),"inconclusive [inhibitor, partial curve]"
9,COc1ccc2c(c1)c(CC(=O)NCc1ccc3c(c1)OCO3)c(C)n2C(=O)c1ccc(Cl)cc1,inactive
10,CSc1ncc(Cl)c(C(=O)Nc2nnc(SC/C=C/c3ccccc3)s2)n1,"inconclusive [inhibitor, single point]"
11,CCOCC(=O)Nc1nc2ccc(C)cc2s1,active: 12.6 µM
12,COC(=O)c1sccc1NC(=O)CC1C(=O)NCCN1C(=O)c1ccc(N(C)C)cc1 (centres undefined),active: 10 µM
13,COc1cc(CNc2ccc(NC(C)=O)cc2)ccc1OCc1ccccc1C,"inconclusive [inhibitor, single point]"
14,CCCc1cc(C(F)(F)F)c(C#N)c(=O)[nH]1,"inconclusive [inhibitor, partial curve]"
15,CCOc1cc(C(=O)NC(=S)Nn2cnnc2)cc(OCC)c1OCC,active: 11.2 µM
16,CCc1nnc(NC(=O)C2CCCO2)s1 (centres undefined),inactive
17,CCCC(=O)N1CCN(c2nc(CC(C)C)c3c(c2C#N)CCC3)CC1,"inconclusive [inhibitor, partial curve]"
18,NC(=O)[C@@H]1CCOc2c(F)cc([N+](=O)[O-])cc2C(=O)N[C@@H](CO)C(=O)NCC(=O)N1,"inconclusive [inhibitor, single point]"
19,O=C(O)CCC(=O)NCc1ccc(F)cc1,inactive
20,O=C(NCC1OCCc2ccccc21)c1ccc(NC(=O)c2ccccc2Cl)cc1 (centres undefined),"inconclusive [inhibitor, single point]"
21,CNc1ccc(Cl)cc1C(N)=O,"inconclusive [inhibitor, partial curve]"
22,O=C(NCc1ccco1)c1nc(-c2ccccc2)n(-c2ccccc2)n1,"inconclusive [inhibitor, single point]"
23,CCOC(=O)CSc1nc(-c2ccccc2)ns1,"inconclusive [inhibitor, single point]"

# — PubChem BioAssay AID1030 (National Center for Advancing Translational Sciences (NCATS), 2008)
